Molecules are shown by their SMILES. The whole screen tested about 310,000 compounds, of which about 2,200 (0.71%) showed an effect of 50% or more. The effect is printed as a negative number. Some of the results follow.

Sequence of human ether-à-go-go-related gene (hERG) potassium channel (Q12809 whole entry, looked up): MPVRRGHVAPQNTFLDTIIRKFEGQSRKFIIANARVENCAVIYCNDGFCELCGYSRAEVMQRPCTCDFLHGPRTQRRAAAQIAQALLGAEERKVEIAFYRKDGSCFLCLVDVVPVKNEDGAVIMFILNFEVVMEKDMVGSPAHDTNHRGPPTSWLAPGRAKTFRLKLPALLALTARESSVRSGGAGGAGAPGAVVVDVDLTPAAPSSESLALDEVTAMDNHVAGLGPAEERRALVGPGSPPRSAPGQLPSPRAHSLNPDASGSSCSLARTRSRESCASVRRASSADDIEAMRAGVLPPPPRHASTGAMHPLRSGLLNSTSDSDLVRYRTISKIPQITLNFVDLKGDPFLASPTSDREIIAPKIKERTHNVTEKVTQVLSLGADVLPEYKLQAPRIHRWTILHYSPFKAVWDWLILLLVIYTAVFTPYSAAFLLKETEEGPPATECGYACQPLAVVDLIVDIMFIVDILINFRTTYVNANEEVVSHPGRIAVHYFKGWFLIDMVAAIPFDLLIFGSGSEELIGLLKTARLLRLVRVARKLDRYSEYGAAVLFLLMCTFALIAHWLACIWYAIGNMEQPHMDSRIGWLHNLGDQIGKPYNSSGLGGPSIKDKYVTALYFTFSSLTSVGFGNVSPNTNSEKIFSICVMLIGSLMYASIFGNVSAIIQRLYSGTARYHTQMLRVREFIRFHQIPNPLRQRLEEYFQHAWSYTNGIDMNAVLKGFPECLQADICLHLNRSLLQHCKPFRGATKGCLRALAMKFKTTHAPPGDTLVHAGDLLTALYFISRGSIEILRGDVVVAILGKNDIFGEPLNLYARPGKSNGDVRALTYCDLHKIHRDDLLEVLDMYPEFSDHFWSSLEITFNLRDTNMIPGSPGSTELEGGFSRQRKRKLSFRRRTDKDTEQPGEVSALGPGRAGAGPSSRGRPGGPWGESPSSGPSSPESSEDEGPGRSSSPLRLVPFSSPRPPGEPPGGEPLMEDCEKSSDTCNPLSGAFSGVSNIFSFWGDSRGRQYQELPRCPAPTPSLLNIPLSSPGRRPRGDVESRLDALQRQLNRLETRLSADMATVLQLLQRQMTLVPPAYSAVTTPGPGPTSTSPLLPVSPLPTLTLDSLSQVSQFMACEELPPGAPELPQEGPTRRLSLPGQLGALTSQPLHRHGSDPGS

This assay addresses human ether-à-go-go-related gene (hERG) potassium channel (human, UniProt Q12809). The assay can be described thus: primary screen, population patch clamp on CHO cells stably expressing hERG.
As for `O=S(=O)(c1ccc(-c2cc(C(F)(F)F)on2)s1)N1CCCC1`, the “hERG current change (%, negative = inhibition) at 1uM” value is reported as 7.19%. In the case of `CCc1[nH]nc(C(=O)N2CCCC(CO)(Cc3ccc(F)cc3F)C2)c1C` (centres unmarked), the “hERG current change (%, negative = inhibition) at 1uM” value came out at 16.4%. The figure for `Fc1ccccc1CSc1nc2ncccc2[nH]1` is 0.402%. The result for `COC(=O)C1=C(O)/C(=C\c2ccc(CNC(=O)C(=O)Nc3ccc(C)c(C)c3)o2)N=C1C` reads -2.4%; that for `COc1ccc(S(=O)(=O)NC2CC(=O)N(c3ccc4c(c3)OCCO4)C2)cc1` (centres unmarked), 9.65%. The figure for `COc1ccccc1OC1=NS(=O)(=O)c2ccccc21` is 6.53%; for `Cc1c(C)c2c(OCC(=O)N[C@@H](C(=O)O)c3ccccc3)cc3c(c2oc1=O)CCC(C)(C)O3` it is 12.3%; for `O=C(CSc1nc(C2CC2)nc2ccccc12)Nc1cccc(O)c1` it is 5.02%. On to `CC(=O)N/N=C\c1cccc(OC/C=C/c2ccccc2)c1`, for which the “hERG current change (%, negative = inhibition) at 1uM” value is given as 11.6%.

Regarding `COc1ccc(-c2cnc[nH]2)cc1`, the “hERG current change (%, negative = inhibition) at 1uM” value is 16.9%. The figure for `COc1ccc(N(Cc2cc3ccccc3[nH]c2=O)S(C)(=O)=O)cc1` is 11.2%; for `CCOC(=O)C1=C(O)/C(=C/c2cccc(OC)c2O)N=C1C` it is 13.4%; for `CN(CC(=O)Nc1cccc(F)c1)C(=O)CCCc1cccs1` it is 0.946%. The result for `Cn1nc(-c2ccccc2)c(/C=N/O)c1Cl` reads 9.02%; that for `Cc1ccc(-c2cc(C(F)(F)F)c(C#N)c(=O)[nH]2)cc1`, 1.83%. The figure for `Cc1ccccc1NC(=O)CCNS(=O)(=O)c1cccc2nsnc12` is 11.5%; for `O=C(NCCCN1CCN(Cc2ccccc2Cl)CC1)Nc1ccccc1` it is -8.54%. Consider `COc1ccc(C)cc1NC(=O)CSc1ccc(-c2ccccn2)nn1`, for which the “hERG current change (%, negative = inhibition) at 1uM” value stood at 20.3%. As to `Cc1ccc(N2C(=O)SC(N(CC(=O)O)c3cccc(C)c3)C2=O)cc1` (centres unmarked), the “hERG current change (%, negative = inhibition) at 1uM” value is given as -0.336%.

Consider `O=C(O)c1cccc(S(=O)(=O)N(Cc2ccccc2)c2ccc(Cl)cc2)c1`, for which the “hERG current change (%, negative = inhibition) at 1uM” value is 15.8%. In the case of `CCCNCc1cc(Cl)c(OCC)c(Cl)c1.Cl`, the “hERG current change (%, negative = inhibition) at 1uM” value was 17%. `O=C1CCCc2c1nc(-c1ccc(F)cc1)n2O`: the “hERG current change (%, negative = inhibition) at 1uM” value is listed as 4.51%. The figure for `Cc1ccc(N/N=C(\C#N)C(=N)N2CCCCC2)cc1` is -3.22%; for `O=C(Nc1cnccn1)C1c2ccccc2Oc2ccccc21` it is 0.161%.

Consider `NC(N)=NC(N)=Nc1ccccc1`, for which the “hERG current change (%, negative = inhibition) at 1uM” value is given as 3.8%. The figure for `O=C(NCc1ccco1)C(=O)c1cn(CC(=O)N2CCCC2)c2ccccc12` is -8.79%.

The record behind these values is paper PMC4336329 (PLoS ONE, 2015).
